Sequences and labels used below:
T1: RBFOX1 RRM (Homo sapiens, UniProt Q9NWB1 109-208)
T1 sequence: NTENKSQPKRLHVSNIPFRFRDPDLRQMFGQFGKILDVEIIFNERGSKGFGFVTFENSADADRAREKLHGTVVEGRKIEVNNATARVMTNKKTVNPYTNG

B1: GGUAAGU (DNA:RNA)
RNA: GGGAGACCGGAAUUCAGAUUGUCCGGUAAGUUUAAAUCCCGUCGUAGCCACCA
DNA 1: CAATCTGAATTCCGGTCTCCC
DNA 2: TGGTGGCTACGACGGGATT
B2: AGGGGUC (DNA:RNA)
RNA: B1 RNA with G25A, U27G, A28G, A29G, G30U, U31C
DNA 1: CAATCTGAATTCCGGTCTCCC
DNA 2: TGGTGGCTACGACGGGATT
B3: AAUUAUA (DNA:RNA)
RNA: B1 RNA with G25A, G26A, A28U, G30U, U31A
DNA 1: CAATCTGAATTCCGGTCTCCC
DNA 2: TGGTGGCTACGACGGGATT
B4: GCUAAUA (DNA:RNA)
RNA: B1 RNA with G26C, G30U, U31A
DNA 1: CAATCTGAATTCCGGTCTCCC
DNA 2: TGGTGGCTACGACGGGATT
B5: CAUUUUC (DNA:RNA)
RNA: B1 RNA with G25C, G26A, A28U, A29U, G30U, U31C
DNA 1: CAATCTGAATTCCGGTCTCCC
DNA 2: TGGTGGCTACGACGGGATT
B6: GGGGUAU (DNA:RNA)
RNA: B1 RNA with U27G, A28G, A29U, G30A
DNA 1: CAATCTGAATTCCGGTCTCCC
DNA 2: TGGTGGCTACGACGGGATT
B7: CAUGGAA (DNA:RNA)
RNA: B1 RNA with G25C, G26A, A28G, A29G, G30A, U31A
DNA 1: CAATCTGAATTCCGGTCTCCC
DNA 2: TGGTGGCTACGACGGGATT
B8: CACAUGG (DNA:RNA)
RNA: B1 RNA with G25C, G26A, U27C, A29U, U31G
DNA 1: CAATCTGAATTCCGGTCTCCC
DNA 2: TGGTGGCTACGACGGGATT
B9: AAACCCG (DNA:RNA)
RNA: GGGAGACCGGAAUUCAGAUUGUCCAAACCCGUUAAAUCCCGUCGUAGCCACCA
DNA 1: CAATCTGAATTCCGGTCTCCC
DNA 2: TGGTGGCTACGACGGGATT
B10: ACGGUGC (DNA:RNA)
RNA: B9 RNA with A26C, A27G, C28G, C29U, C30G, G31C
DNA 1: CAATCTGAATTCCGGTCTCCC
DNA 2: TGGTGGCTACGACGGGATT
B11: GUUCACG (DNA:RNA)
RNA: B9 RNA with A25G, A26U, A27U, C29A
DNA 1: CAATCTGAATTCCGGTCTCCC
DNA 2: TGGTGGCTACGACGGGATT
B12: GCGACUG (DNA:RNA)
RNA: B9 RNA with A25G, A26C, A27G, C28A, C30U
DNA 1: CAATCTGAATTCCGGTCTCCC
DNA 2: TGGTGGCTACGACGGGATT
B13: CUUCCAU (DNA:RNA)
RNA: B9 RNA with A25C, A26U, A27U, C30A, G31U
DNA 1: CAATCTGAATTCCGGTCTCCC
DNA 2: TGGTGGCTACGACGGGATT
B14: GAUGUUU (DNA:RNA)
RNA: B1 RNA with G26A, A28G, A29U, G30U
DNA 1: CAATCTGAATTCCGGTCTCCC
DNA 2: TGGTGGCTACGACGGGATT
B15: CCGGGGA (DNA:RNA)
RNA: B1 RNA with G25C, G26C, U27G, A28G, A29G, U31A
DNA 1: CAATCTGAATTCCGGTCTCCC
DNA 2: TGGTGGCTACGACGGGATT
B16: GCGGCGU (DNA:RNA)
RNA: B1 RNA with G26C, U27G, A28G, A29C
DNA 1: CAATCTGAATTCCGGTCTCCC
DNA 2: TGGTGGCTACGACGGGATT
B17: UACAACU (DNA:RNA)
RNA: B1 RNA with G25U, G26A, U27C, G30C
DNA 1: CAATCTGAATTCCGGTCTCCC
DNA 2: TGGTGGCTACGACGGGATT
B18: CUGAGAC (DNA:RNA)
RNA: B1 RNA with G25C, G26U, U27G, A29G, G30A, U31C
DNA 1: CAATCTGAATTCCGGTCTCCC
DNA 2: TGGTGGCTACGACGGGATT
B19: CGAUCUA (DNA:RNA)
RNA: B9 RNA with A25C, A26G, C28U, C30U, G31A
DNA 1: CAATCTGAATTCCGGTCTCCC
DNA 2: TGGTGGCTACGACGGGATT
B20: AAUCUGA (DNA:RNA)
RNA: B9 RNA with A27U, C29U, C30G, G31A
DNA 1: CAATCTGAATTCCGGTCTCCC
DNA 2: TGGTGGCTACGACGGGATT

Positions count from the first letter of the chain named. This is one part of the list.

The target of the assay is T1, RBFOX1 RRM. Description: EMSA; HiTS-Eq, 1 nM pool, 10 min; buffer printed only for the single-RNA assays: 10 mM Tris pH 7.5, 150 mM NaCl, 3.4 mM EDTA, 0.001% NP-40, 30 C. The settings on record: tags: His6 N-terminal (pET28a); label: 5' 32P. The procedure, abridged: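 Purified RbFox RRM, wild type or mutant, was incubated for 10 min in 50 µL with 1 nM of a 5′-radiolabelled RNA pool carrying 7 randomized nucleotides, whose flanks were annealed to DNA oligonucleotides, over a series of increasing protein concentrations. Unbound RNA was resolved on 8% native PAGE, cut out, reverse-transcribed, barcoded by PCR and sequenced on an Illumina HiSeq 2500. Relative association constants were derived from changes in read counts for each RNA species versus the control reaction and normalised to the cognate motif.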
For orientation: Mobility shift assays separate free from complexed probe on a gel.
For the molecule B1, the binding signal was 0.00762 KA relative to UGCAUGU.
As for B2, the figure is 0.0243 KA relative to UGCAUGU.
As to B3, the binding signal is 0.00219 KA relative to UGCAUGU.
As to B4, the binding signal was 0.00169 KA relative to UGCAUGU.
In the case of B5, the binding signal was 0.00705 KA relative to UGCAUGU.
Take B6: the binding signal is 0.0265 KA relative to UGCAUGU.
As to B7, the binding signal was 0.00993 KA relative to UGCAUGU.
On to B8, for which the binding signal was 0.00862 KA relative to UGCAUGU.
Turning to B9, the binding signal was 0.000686 KA relative to UGCAUGU.
With B10, the binding signal was 0.0168 KA relative to UGCAUGU.
Next, B11: 0.0115 KA relative to UGCAUGU; B12: 0.0216 KA relative to UGCAUGU.
Next, B13: 0.00161 KA relative to UGCAUGU; B14: 0.0193 KA relative to UGCAUGU; B15: 0.0059 KA relative to UGCAUGU.
As for B16, the figure is 0.0221 KA relative to UGCAUGU; as for B17, 0.00104 KA relative to UGCAUGU.
For the molecule B18, the binding signal is 0.0109 KA relative to UGCAUGU.
Next, B19: 0.00481 KA relative to UGCAUGU; B20: 0.014 KA relative to UGCAUGU.

(Values after PMC9911399, “Two distinct binding modes provide the RNA-binding protein RbFox with extraordinary sequence specificity”.)
